± gives the standard deviation of the averaged measurements. Growth of baker's yeast expressing single-residue variants of Pneumocystis jirovecii dihydrofolate reductase in 8.8 or 44 µM methotrexate (about 75% and 90% inhibition of the wild type). Selection coefficient per generation; 0 = like wild type, above 0 = less sensitive, below 0 = more sensitive or loss of function. No active / inactive call per row; the paper calls resistant above 0.220 (8.8 µM) or 0.243 (44 µM) together with a significance test. At 44 µM about 15% of codons end with one read or none, so the lowest values are floors (replicate rank correlation 0.74; 0.94 at 8.8 µM).
B1: UniProt A0EPZ9; numbered along this chain (parent)
chain: MDWQKSLTLIVALTLSRGIGLKNDLPWKLKSDMMFFSRVTSGLLVTRSTGQMNVVLMGRKTWESLPAHSRPLKNRINVVISRQEVLDLGGGAYHARSLDDALALLSQIYDSTSKIQLNRVFVIGGGELCKAAMEHSRLNRIIATVIHNEVDCDVFFPIDFRSSQSCLPWRKQDHSVLEAWVGSKVPQGKINENGFIYEFEMWIRDI

Variants of: B1
Assay: selection coefficient against synonymous wild-type codons (log2 per generation); higher = faster growth than wild type
Settings: with Saccharomyces cerevisiae carrying the variant on a plasmid
Procedure: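 Pooled growth of yeast carrying single-residue variants of P. jirovecii dihydrofolate reductase (own DFR1 gene intact), two passages at 30 °C, three cultures, sequenced before and after. Codons with under 15 starting reads are left out; codons of one change are averaged.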

Row | Variant | selection coefficient against synonymous wild-type codons (log2) (methotrexate 8.8 µM) | selection coefficient against synonymous wild-type codons (log2) (methotrexate 44 µM)
1 | MDWQKSLTLIVALTLSRGIGLKNDLPWKLKSDMMFFSRVTSGLLVTRSTGQMNVVLMGRKTWESLPAHSRPLKNRINVVISRQEVLDLGGGAYHARSLDDALALLSQIYDSTSKIQLNRVFVIGGGELCKAAMEHSRLNRIIATVIHNEVDCDVFFPIDFRSSQSCLPWRKQDHSVLEAWVGSKVPQGKINENGFIYEFEEWIRDI [M201E] | -0.0113 ± 0.089 | -0.0286 ± 0.19
2 | MDWQKSLTLIVALTLSRGIGLKNDLPWKLKSDMMFFSRVTSGLLVTRSTGQMNVVLMGRKTWESLPAHSRPLKNRINVVISRQEVLDLGGGAYHARSLDDALALLSQIYDSTSKIQLNRVFVIGGGELCKAAMEHSRLNRIIATVIHNEVDCDVFFPIDFRSSQSCLPWRKQDHSVLEAWVGSKVPQGKINENGFIYEFEFWIRDI [M201F] | -0.0926 ± 0.045 | -0.115 ± 0.028
3 | MDWQKSLTLIVALTLSRGIGLKNDLPWKLKSDMMFFSRVTSGLLVTRSTGQMNVVLMGRKTWESLPAHSRPLKNRINVVISRQEVLDLGGGAYHARSLDDALALLSQIYDSTSKIQLNRVFVIGGGELCKAAMEHSRLNRIIATVIHNEVDCDVFFPIDFRSSQSCLPWRKQDHSVLEAWVGSKVPQGKINENGFIYEFEGWIRDI [M201G] | -0.0133 ± 0.043 | -0.0776 ± 0.089
4 | MDWQKSLTLIVALTLSRGIGLKNDLPWKLKSDMMFFSRVTSGLLVTRSTGQMNVVLMGRKTWESLPAHSRPLKNRINVVISRQEVLDLGGGAYHARSLDDALALLSQIYDSTSKIQLNRVFVIGGGELCKAAMEHSRLNRIIATVIHNEVDCDVFFPIDFRSSQSCLPWRKQDHSVLEAWVGSKVPQGKINENGFIYEFEHWIRDI [M201H] | 0.0383 ± 0.16 | -0.027 ± 0.093
5 | MDWQKSLTLIVALTLSRGIGLKNDLPWKLKSDMMFFSRVTSGLLVTRSTGQMNVVLMGRKTWESLPAHSRPLKNRINVVISRQEVLDLGGGAYHARSLDDALALLSQIYDSTSKIQLNRVFVIGGGELCKAAMEHSRLNRIIATVIHNEVDCDVFFPIDFRSSQSCLPWRKQDHSVLEAWVGSKVPQGKINENGFIYEFEIWIRDI [M201I] | -0.22 ± 0.054 | -0.249 ± 0.082
6 | MDWQKSLTLIVALTLSRGIGLKNDLPWKLKSDMMFFSRVTSGLLVTRSTGQMNVVLMGRKTWESLPAHSRPLKNRINVVISRQEVLDLGGGAYHARSLDDALALLSQIYDSTSKIQLNRVFVIGGGELCKAAMEHSRLNRIIATVIHNEVDCDVFFPIDFRSSQSCLPWRKQDHSVLEAWVGSKVPQGKINENGFIYEFEKWIRDI [M201K] | -0.322 ± 0.061 | -0.266 ± 0.12
7 | MDWQKSLTLIVALTLSRGIGLKNDLPWKLKSDMMFFSRVTSGLLVTRSTGQMNVVLMGRKTWESLPAHSRPLKNRINVVISRQEVLDLGGGAYHARSLDDALALLSQIYDSTSKIQLNRVFVIGGGELCKAAMEHSRLNRIIATVIHNEVDCDVFFPIDFRSSQSCLPWRKQDHSVLEAWVGSKVPQGKINENGFIYEFELWIRDI [M201L] | -0.0846 ± 0.054 | -0.142 ± 0.16
8 | MDWQKSLTLIVALTLSRGIGLKNDLPWKLKSDMMFFSRVTSGLLVTRSTGQMNVVLMGRKTWESLPAHSRPLKNRINVVISRQEVLDLGGGAYHARSLDDALALLSQIYDSTSKIQLNRVFVIGGGELCKAAMEHSRLNRIIATVIHNEVDCDVFFPIDFRSSQSCLPWRKQDHSVLEAWVGSKVPQGKINENGFIYEFENWIRDI [M201N] | -0.0399 ± 0.04 | -0.103 ± 0.098
9 | MDWQKSLTLIVALTLSRGIGLKNDLPWKLKSDMMFFSRVTSGLLVTRSTGQMNVVLMGRKTWESLPAHSRPLKNRINVVISRQEVLDLGGGAYHARSLDDALALLSQIYDSTSKIQLNRVFVIGGGELCKAAMEHSRLNRIIATVIHNEVDCDVFFPIDFRSSQSCLPWRKQDHSVLEAWVGSKVPQGKINENGFIYEFEPWIRDI [M201P] | -0.00913 ± 0.074 | -0.0576 ± 0.092
10 | MDWQKSLTLIVALTLSRGIGLKNDLPWKLKSDMMFFSRVTSGLLVTRSTGQMNVVLMGRKTWESLPAHSRPLKNRINVVISRQEVLDLGGGAYHARSLDDALALLSQIYDSTSKIQLNRVFVIGGGELCKAAMEHSRLNRIIATVIHNEVDCDVFFPIDFRSSQSCLPWRKQDHSVLEAWVGSKVPQGKINENGFIYEFEQWIRDI [M201Q] | -0.0786 ± 0.066 | -0.287 ± 0.047
11 | MDWQKSLTLIVALTLSRGIGLKNDLPWKLKSDMMFFSRVTSGLLVTRSTGQMNVVLMGRKTWESLPAHSRPLKNRINVVISRQEVLDLGGGAYHARSLDDALALLSQIYDSTSKIQLNRVFVIGGGELCKAAMEHSRLNRIIATVIHNEVDCDVFFPIDFRSSQSCLPWRKQDHSVLEAWVGSKVPQGKINENGFIYEFERWIRDI [M201R] | -0.527 ± 0.13 | -0.233 ± 0.09
12 | MDWQKSLTLIVALTLSRGIGLKNDLPWKLKSDMMFFSRVTSGLLVTRSTGQMNVVLMGRKTWESLPAHSRPLKNRINVVISRQEVLDLGGGAYHARSLDDALALLSQIYDSTSKIQLNRVFVIGGGELCKAAMEHSRLNRIIATVIHNEVDCDVFFPIDFRSSQSCLPWRKQDHSVLEAWVGSKVPQGKINENGFIYEFESWIRDI [M201S] | 0.0398 ± 0.071 | -0.0401 ± 0.11
13 | MDWQKSLTLIVALTLSRGIGLKNDLPWKLKSDMMFFSRVTSGLLVTRSTGQMNVVLMGRKTWESLPAHSRPLKNRINVVISRQEVLDLGGGAYHARSLDDALALLSQIYDSTSKIQLNRVFVIGGGELCKAAMEHSRLNRIIATVIHNEVDCDVFFPIDFRSSQSCLPWRKQDHSVLEAWVGSKVPQGKINENGFIYEFETWIRDI [M201T] | 0.076 ± 0.06 | -0.0827 ± 0.17
14 | MDWQKSLTLIVALTLSRGIGLKNDLPWKLKSDMMFFSRVTSGLLVTRSTGQMNVVLMGRKTWESLPAHSRPLKNRINVVISRQEVLDLGGGAYHARSLDDALALLSQIYDSTSKIQLNRVFVIGGGELCKAAMEHSRLNRIIATVIHNEVDCDVFFPIDFRSSQSCLPWRKQDHSVLEAWVGSKVPQGKINENGFIYEFEVWIRDI [M201V] | -0.165 ± 0.073 | -0.197 ± 0.07
15 | MDWQKSLTLIVALTLSRGIGLKNDLPWKLKSDMMFFSRVTSGLLVTRSTGQMNVVLMGRKTWESLPAHSRPLKNRINVVISRQEVLDLGGGAYHARSLDDALALLSQIYDSTSKIQLNRVFVIGGGELCKAAMEHSRLNRIIATVIHNEVDCDVFFPIDFRSSQSCLPWRKQDHSVLEAWVGSKVPQGKINENGFIYEFEWWIRDI [M201W] | -0.35 ± 0.095 | -0.295 ± 0.069
